For 21 variants, self-cleavage results are on record in the RNAGym collection of RNA variant scans (doi:10.7554/elife.90254).

Read counts are not given, so values of variants with three or more changes are uncertain.

The labels stand for the following.
B1: OR4K15 (parent)
chain: GUUAACGGUCAUAGGCCAUGGAAACUAGGAGCACCAUUUCGCUGCCAGUGAAGAAAUGAACAAAGAAAAUCUGGGCCAGGCAGGCAUCAAAAGAAAUAGUCUUGCGCUCAACCAGAAAGUCUGUAAUCAUUUUAAGGGUA

In this series the parent is B1. Put plainly: self-cleavage, relative activity (ratio to wild type); higher = more cleavage; in vitro, sequencing; the parent is a self-cleaving ribozyme.
Consider GUUAACGGUCAUAGGCCAUGGAAACUAGGAGCACCAUUUCGCUGCCAGUGAAGAAAUGAACAAAGAAAAUCUGGGCCAGGCAGGCAUCAAAAGAAAUUGUCUUGCGCUCAACCGGAAAGUCUGUGAUCAUUUUAAGGGUA [A98U A114G A125G], for which the self-cleavage was found to be 0.22.
With GUUAACGGUCAUAGGCCAUGGAAACUAGGAGCACCAUUUCGCUGCCAGUGAAGAAAUGAACAAAGAAAAUCUGGGCCAGGCAGGCAUCAAAAGAAAUAAUCUUGCGCUCAACCAGUAGGUCAGUAAUCAUUUUAAGGGUA [G99A A116U A118G U122A] the figure was 0; with GUUAACGGUCAUAGGCCAUGGAAACUAGGAGCACCAUUUCGCUGCCAGUGAAGAAAUGAACAAAGAAAAUCUGGGCCAGGCAGGCAUCAAAAGAAAUAGUAUUGCGCUCAACCAGAAGGUCUGUAAUCGUUUUAAGGGUA [C101A A118G A129G], 0.02.
For GUUAACGGUCAUAGGCCAUGGAAACUAGGAGCACCAUUUCGCUGCCAGUGAAGAAAUGAACAAAGAAAAUCUGGGCCAGGCAGGCAUCAAAAGAAAUAGUCCUGCGCUCAACCAGAAAGUCUGUAAUCAAUUUAAGGGUG [U102C U130A A140G], the self-cleavage stood at 1.94.
To GUUAACGGUCAUAGGCCAUGGAAACUAGGAGCACCAUUUCGCUGCCAGUGAAGAAAUGAACAAAGAAAAUCUGGGCCAGGCAGGCAUCAAAAGAAAUAGUCCUGCGCUCAACCAGAAAGUAUGUAAUCAUUCUAAGGGUA [U102C C121A U132C] belongs 2.47.
With GUUAACGGUCAUAGGCCAUGGAAACUAGGAGCACCAUUUCGCUGCCAGUGAAGAAAUGAACAAAGAAAAUCUGGGCCAGGCAGGCAUCAAAAGAAAUAGUCCUGCGCUCAACCAGAAAGUCUGUAACCAUUUUAAGGGUG [U102C U127C A140G] the figure was 1.42; with GUUAACGGUCAUAGGCCAUGGAAACUAGGAGCACCAUUUCGCUGCCAGUGAAGAAAUGAACAAAGAAAAUCUGGGCCAGGCAGGCAUCAAAAGAAAUAGUCUCGCGCCCAACCAGAAAGUCAGUAAUCAUUUUAAGGGUA [U103C U108C U122A], 0.03; with GUUAACGGUCAUAGGCCAUGGAAACUAGGAGCACCAUUUCGCUGCCAGUGAAGAAAUGAACAAAGAAAAUCUGGGCCAGGCAGGCAUCAAAAGAAAUAGUCCUGCGCUCAACCGGAGAGUCUGUAAUCAUUUUAAGGGUA [U102C A114G A117G], 1.73.
GUUAACGGUCAUAGGCCAUGGAAACUAGGAGCACCAUUUCGCUGCCAGUGAAGAAAUGAACAAAGAAAAUCUGGGCCAGGCAGGCAUCAAAAGAAAUAGUCAUGCGCUCAACCAGAAAGUCAGUAACCAUUUUAAGGGUA [U102A U122A U127C]: the self-cleavage was determined as 0.76.
With GUUAACGGUCAUAGGCCAUGGAAACUAGGAGCACCAUUUCGCUGCCAGUGAAGAAAUGAACAAAGAAAAUCUGGGCCAGGCAGGCAUCAAAAGAAAUAGUCCUGCGCUCAACCAGCAAGCCUGUAAUCAUUUUAAGAGUA [U102C A116C U120C G137A] the figure was 1.58; with GUUAACGGUCAUAGGCCAUGGAAACUAGGAGCACCAUUUCGCUGCCAGUGAAGAAAUGAACAAAGAAAAUCUGGGCCAGGCAGGCAUCAAAAGAAAUAGCCCUGCGCUCAACCAGAGAGUCUGUAAUCAUUUUAAGGGUA [U100C U102C A117G], 2.14.
With GUUAACGGUCAUAGGCCAUGGAAACUAGGAGCACCAUUUCGCUGCCAGUGAAGAAAUGAACAAAGAAAAUCUGGGCCAGGCAGGCAUCAAAAGAAAUUGUCUUGCGCUCAACCGGAAAGUCUGUAACCAUUUUAAGGGUA [A98U A114G U127C] the figure was 0.09.
To GUUAACGGUCAUAGGCCAUGGAAACUAGGAGCACCAUUUCGCUGCCAGUGAAGAAAUGAACAAAGAAAAUCUGGGCCAGGCAGGCAUCAAAAGAAAUAGUCUGGCACUCAGCCAGAAAGUCUGUAAUCACUUUAAGGGUA [U103G G106A A111G U130C] belongs 0.01; to GUUAACGGUCAUAGGCCAUGGAAACUAGGAGCACCAUUUCGCUGCCAGUGAAGAAAUGAACAAAGAAAAUCUGGGCCAGGCAGGCAUCAAAAGAAAUAGUCUCGCGCUCAACCAUACAGUCUGUAAUCAUUUUGAGGGUA [U103C G115U A117C A134G], 0.01.
With GUUAACGGUCAUAGGCCAUGGAAACUAGGAGCACCAUUUCGCUGCCAGUGAAGAAAUGAACAAAGAAAAUCUGGGCCAGGCAGGCAUCAAAAGAAAUAGUCAUGCGCUCAACCAGAGAGCCUGUAAUCAAUUUAAGGGUA [U102A A117G U120C U130A], the self-cleavage was 0.17.
To GUUAACGGUCAUAGGCCAUGGAAACUAGGAGCACCAUUUCGCUGCCAGUGAAGAAAUGAACAAAGAAAAUCUGGGCCAGGCAGGCAUCAAAAGAAAUAGCCUUGCGCUCAACCCGAAAGCCUGUAAUCACUUUAAGGGUA [U100C A114C U120C U130C] belongs 0.02; to GUUAACGGUCAUAGGCCAUGGAAACUAGGAGCACCAUUUCGCUGCCAGUGAAGAAAUGAACAAAGAAAAUCUGGGCCAGGCAGGCAUCAAAAGAAAUAGACUUGCGCUCAACUAGAAAGUCUGUAAUCAUUUUAGGGGUA [U100A C113U A135G], 0.
To GUUAACGGUCAUAGGCCAUGGAAACUAGGAGCACCAUUUCGCUGCCAGUGAAGAAAUGAACAAAGAAAAUCUGGGCCAGGCAGGCAUCAAAAGAAAUAGUCAUGCGCUCAACUAGAAAGCCUGUGAACAUCUUAAGGGUA [U102A C113U U120C A125G U127A U131C] belongs 0; to GUUAACGGUCAUAGGCCAUGGAAACUAGGAGCACCAUUUCGCUGCCAGUGAAGAAAUGAACAAAGAAAAUCUGGGCCAGGCAGGCAUCAAAAGAAAUAGUCCUGCGCUCAACCAGAAAGUCUGUAAUCAUUUGAAGGGUG [U102C U133G A140G], 2.65; to GUUAACGGUCAUAGGCCAUGGAAACUAGGAGCACCAUUUCGCUGCCAGUGAAGAAAUGAACAAAGAAAAUCUGGGCCAGGCAGGCAUCAAAAGAAAUAGCCUUGCGCCCAGCCAGAAAGUCUGUAAUCAUUUUAGGGGUA [U100C U108C A111G A135G], 0.01.
To GUUAACGGUCAUAGGCCAUGGAAACUAGGAGCACCAUUUCGCUGCCAGUGAAGAAAUGAACAAAGAAAAUCUGGGCCAGGCAGGCAUCAAAAGAAAUAGUCUAGCGCUCAACCAGAAAGUCUGUAAUCACUUUAACGGUA [U103A U130C G136C] belongs 0.15.
